Measured values published in the supplement of paper PMC3334620.
In all, about 33,000 sequences were measured (“E-score (-0.5 to 0.5)”: median about -0.016, highest 2% from about 0.32 on). Some of the results follow.

Biological target: T1, Stp1 (UniProt B3LFK1)
T1 sequence: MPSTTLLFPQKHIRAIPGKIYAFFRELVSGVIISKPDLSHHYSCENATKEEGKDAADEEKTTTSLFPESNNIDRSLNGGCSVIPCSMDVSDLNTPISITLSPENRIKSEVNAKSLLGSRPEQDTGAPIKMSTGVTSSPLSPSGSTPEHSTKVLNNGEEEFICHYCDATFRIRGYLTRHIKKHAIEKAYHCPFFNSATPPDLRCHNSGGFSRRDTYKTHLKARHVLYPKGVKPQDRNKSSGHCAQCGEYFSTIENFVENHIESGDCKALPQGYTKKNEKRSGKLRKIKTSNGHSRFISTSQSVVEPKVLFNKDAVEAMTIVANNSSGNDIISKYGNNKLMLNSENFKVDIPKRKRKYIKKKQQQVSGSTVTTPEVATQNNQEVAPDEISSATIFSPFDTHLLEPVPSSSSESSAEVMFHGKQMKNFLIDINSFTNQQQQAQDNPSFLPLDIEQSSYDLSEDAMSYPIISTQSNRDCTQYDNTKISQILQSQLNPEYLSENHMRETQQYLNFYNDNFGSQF
Experiment: PBM E-score (8-mer binding enrichment) (E-score (-0.5 to 0.5)); higher = stronger / more preferred TF binding; most listed sequences are background and not binding sites
Conditions: protein concentration: 200 nM; construct: GST-full length
Method in brief: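 Each ungapped eight-base word and its reverse complement, pooled, received an E-score from the Universal PBM Analysis Suite. Underlying scans, normalised with masliner, recorded fluorescent anti-GST bound to GST-tagged yeast transcription factors. These were applied at about 100-200 nM to universal all-10-mer Agilent arrays double-stranded by primer extension.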

Row | Sequence | PBM E-score
1 | CAAGCTTA | 0.0207
2 | GACTGTCC | -0.243
3 | GCCGGCCC | -0.00182
4 | GGGAAAAC | -0.12
5 | GGGACAAC | -0.104
6 | CGTTAATA | 0.0752
7 | ATTAAGTA | -0.0251
8 | CGGTTAGC | -0.119
9 | GACCCTGC | -0.234
10 | AGGGATAA | -0.0917
11 | GCCGCCGA | 0.316
12 | ATTCACGA | 0.0641
13 | CGGTAGGA | -0.15
14 | ACTAGTCT | -0.161
15 | AATGGAGA | 0.00782
16 | AGGCAAAG | 0.0916
17 | ATTTGTTG | 0.216
18 | AAACATAA | 0.0445
19 | CCGGTCGA | -0.207
20 | TAAACATA | 0.143
21 | CCCACTTC | -0.237
22 | ATATCCAG | 0.145
23 | ATCTACAT | 0.0378
24 | GGGTACGA | -0.26
25 | ATAATCCA | 0.0262

Row | Sequence | PBM E-score
26 | ATAGGGAG | -0.333
27 | ATCCTACG | -0.0808
28 | CGTGCCGA | 0.352
29 | AGGGCGTA | 0.0802
30 | GCACCGGC | 0.117
31 | TACAAGTA | -0.141
32 | ACGGCCAG | -0.06
33 | AAAGTCAA | -0.0876
34 | AGTTAAAC | 0.0475
35 | AACCATGC | 0.103
36 | CTGCCAAC | -0.149
37 | ACCCCGTC | -0.239
38 | ACTTAGGC | -0.0486
39 | TAAATGAA | 0.0329
40 | GGCCCAAC | -0.129
41 | ACCACATG | 0.00989
42 | CCGGAACA | -0.0245
43 | GCTCTGAC | -0.225
44 | ACAACGTA | 0.063
45 | ACACCGCC | -0.0718
46 | CCTTATTC | -0.0435
47 | CTGAAAAA | -0.0424
48 | AGAACGGG | -0.129
49 | AGGGTTTC | -0.0824
50 | CGGTTCCA | -0.0473

Row | Sequence | PBM E-score
51 | GCTGTCAC | -0.146
52 | GATCACAC | -0.00065
53 | CACTCTAG | -0.111
54 | CCCGGAGG | -0.379
55 | AGTCCAGG | -0.286
56 | CAACCGCG | 0.219
57 | AACAAGAT | 0.0327
58 | CGATGCAC | -0.0077
59 | CTATCTAA | 0.0687
60 | GCAGGCAA | -0.0145
61 | AAATCAAT | 0.158
62 | CGGCCCCG | 0.122
63 | AGGGTTAC | -0.126
64 | GCGGACGC | 0.0304
65 | CCCATTGC | -0.0165
66 | AACGCGCC | 0.361
67 | AAATAGTT | 0.0871
68 | CAAACATC | 0.0532
69 | ACAGGTAC | -0.147
70 | TATCAGGA | 0.147
71 | ATGGTAAG | -0.0201
72 | GAAATTCC | -0.0721
73 | ACCTACAA | 0.0363
74 | CTCGACTC | -0.0905
75 | GCGCTCAA | -0.0528

Row | Sequence | PBM E-score
76 | CACCCTAA | -0.0997
77 | CCTCCCGA | -0.195
78 | CTACCCGC | -0.018
79 | GAACGATC | -0.0803
80 | TCACTGGA | -0.151
81 | GTCTGTAA | 0.131
82 | ATCACTGC | 0.208
83 | CGCCTCCA | 0.116
84 | ACAGTTCA | -0.021
85 | GGATGGAC | -0.244
86 | CATTCTGA | 0.0181
87 | ATACGCAT | 0.192
88 | ATATGCTC | -0.0953
89 | TTCTGCAA | 0.187
90 | ACCTAGTA | -0.3
91 | AAGATAAG | 0.141
92 | CACGGCGG | 0.417
93 | CTATACGA | 0.0887
94 | ACCTATCA | -0.106
95 | AATCATCT | 0.0489
96 | CACGCATG | -0.0816
97 | AGATCGTG | -0.0646
98 | AAGGCCCA | -0.127
99 | CCTGGTCA | -0.275
100 | GGTCCCAA | -0.186

Row | Sequence | PBM E-score
101 | CGACTGGA | -0.104
102 | AGACCTGC | -0.155
103 | AGTCTGCC | -0.0863
104 | AACCGAAA | 0.138
105 | AAGACTTA | -0.233
106 | CCCCCAGC | -0.433
107 | CATACCGA | 0.0392
108 | CTGAGTCA | 0.0843
109 | AACCAAGT | 0.132
110 | ATGAGAGA | 0.0512
111 | ATGTGACC | -0.0184
112 | GGGCTGTA | -0.317
113 | TACCGGTA | -0.115
114 | AATGCGGA | 0.0673
115 | AGACGATA | 0.0435
116 | GGCCTTAA | 0.0677
117 | TCTGCCAA | -0.255
118 | CCATATGG | 0.0408
119 | AAGCAGGA | -0.113
120 | TAGGTTCA | 0.0555
121 | CCCCTTGA | -0.137
122 | AGCTAGAT | -0.0481
123 | GGCCGTAA | 0.192
124 | ATAGGAGA | -0.205
125 | GATGATCA | -0.0875

Row | Sequence | PBM E-score
126 | GCCATACA | 0.174
127 | GAGCACGA | -0.0484
128 | CGCGCTAG | 0.129
129 | ACTAATCG | 0.144
130 | AAGTGTCG | -0.0319
131 | CGTCGGTC | 0.00037
132 | ATCCACAC | -0.106
133 | TACTTCCA | 0.0101
134 | AATGTAAA | 0.122
135 | CGTCGTGC | 0.143
136 | AGGTATAA | 0.0442
137 | GTGGTTAA | 0.14
138 | GCGGGGAC | -0.0535
139 | TGCCTACA | 0.142
140 | ACTAGGGG | -0.169
141 | CGGCATGC | 0.338
142 | AGAATGCA | -0.0184
143 | GTTAAGCA | -0.0523
144 | CCGGAATA | -0.12
145 | ATCAAATG | 0.0465
146 | GCAGACAC | 0.0232
147 | GTTAGCTA | 0.00972
148 | TGCACCCA | -0.208
149 | ACCATTAC | 0.0161
150 | CCAACCCC | -0.207

Row | Sequence | PBM E-score
151 | CAACGTGG | 0.0582
152 | ATAGGGTC | -0.256
153 | AGGTAGAC | -0.183
154 | CGAAAGCA | -0.0294
155 | CATTGTCA | -0.0284
156 | GACTTCTC | -0.0937
157 | GATGTGGC | 0.105
158 | CTCGCGTA | -0.122
159 | CCAGGACC | -0.325
160 | GTGTACCA | -0.152
161 | ATTCACTA | 0.0352
162 | TATATCGA | 0.253
163 | GAGCGGAC | -0.131
164 | AACCTCCG | -0.339
165 | TACGCAGA | 0.0566
166 | TGAAACAA | 0.133
167 | ATCTGGGG | -0.374
168 | CGTAAGAC | -0.0428
169 | GCGTCCCA | -0.16
170 | AAAGCCCT | -0.19
171 | TAGTATAA | 0.119
172 | CTAACGAC | -0.0775
